Assay results as given in the supplement of paper PMC3334620.
Over roughly 33,000 sequences, “E-score (-0.5 to 0.5)” has its median near -0.054; the highest 2% begin near 0.35. The list shows a part of the results.

Target: T1, Stb5 (UniProt P38699)
T1 sequence: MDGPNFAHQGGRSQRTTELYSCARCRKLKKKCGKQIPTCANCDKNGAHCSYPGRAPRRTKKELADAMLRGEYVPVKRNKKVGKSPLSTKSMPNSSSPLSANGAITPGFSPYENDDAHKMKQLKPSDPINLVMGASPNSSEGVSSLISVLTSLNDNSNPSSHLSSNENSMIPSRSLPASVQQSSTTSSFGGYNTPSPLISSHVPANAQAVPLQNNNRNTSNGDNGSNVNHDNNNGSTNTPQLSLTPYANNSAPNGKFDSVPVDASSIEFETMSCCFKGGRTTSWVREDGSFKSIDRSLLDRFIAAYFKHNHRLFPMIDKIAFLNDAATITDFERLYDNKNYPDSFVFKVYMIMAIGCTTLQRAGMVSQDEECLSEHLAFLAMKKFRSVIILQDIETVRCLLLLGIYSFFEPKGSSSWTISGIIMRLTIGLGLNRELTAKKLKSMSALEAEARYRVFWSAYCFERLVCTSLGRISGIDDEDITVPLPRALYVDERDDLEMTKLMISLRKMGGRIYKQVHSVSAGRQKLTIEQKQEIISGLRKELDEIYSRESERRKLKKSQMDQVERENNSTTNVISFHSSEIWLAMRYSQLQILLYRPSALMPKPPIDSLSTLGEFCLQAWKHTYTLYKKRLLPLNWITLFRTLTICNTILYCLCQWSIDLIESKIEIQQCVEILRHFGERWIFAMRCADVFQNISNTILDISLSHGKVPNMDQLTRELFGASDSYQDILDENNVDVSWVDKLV
Test: PBM E-score (8-mer binding enrichment) (E-score (-0.5 to 0.5)); higher = stronger / more preferred TF binding; most listed sequences are background and not binding sites
Settings: protein concentration: 200 nM; construct: GST-full length
Method in brief: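 Full-length yeast transcription factors or their DNA-binding domains, GST-tagged and expressed with PURExpress, were applied at about 100-200 nM to universal all-10-mer Agilent arrays. These arrays had been made double-stranded by primer extension on fresh or once-stripped slides. Detection used fluorescent anti-GST, normalisation used masliner, and E-scores for ungapped eight-base words pooled with reverse complements came from the Universal PBM Analysis Suite.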

Sequence | PBM E-score
CTGAGATC | -0.158
CAGTCTTA | -0.0948
GGCCCGCC | 0.303
GTTTAGAA | -0.0713
GTTCATTA | -0.0606
AACTAAGC | -0.15
ACCAGGTG | -0.153
GAGACCCA | -0.159
GAAAATAA | 0.0552
CATTGCTC | 0.0791
ACCGGAGG | 0.309
AGACCCCA | -0.173
ACGGATCG | 0.0408
TGAGCCCA | -0.179
ATGAGACG | -0.00272
ACAGAGGA | -0.114
AGACCCGC | 0.36
AGGATCGG | 0.211
TAAATCAA | -0.00303
GATCAGCA | -0.119
CAGTTCGC | -0.166
GAAATCAA | -0.228
AATAAAGC | -0.00711
CATATTGG | -0.18
CGATAGAA | 0.0184

Sequence | PBM E-score
CTTGGCGC | 0.114
ATACGCCC | 0.306
GAGGGGGC | -0.262
CATTACTA | -0.0825
AGGTTCTA | 0.0114
CAAGCAGC | -0.0893
ATCCACGA | -0.324
ATAAGAAG | -0.0004
ACAAGAGT | -0.209
ATGTTCAG | -0.124
CACTGTAA | -0.0759
CTGACACA | -0.192
AGCAACAG | -0.0278
CGCGTCTA | 0.0516
GCTCCGGA | 0.368
ACGGTCTA | 0.0527
TGCTTACA | -0.182
ACGTATTG | 0.0526
GCACGGAC | 0.285
AGCGCTGG | -0.0227
AACTTCCA | -0.0146
AATCCATT | -0.187
AGGCCGAT | 0.295
GATGCAGC | 0.0949
CAATTTCC | 0.132

Sequence | PBM E-score
ATACATCC | 0.295
CAACTAGG | -0.211
CTCCCTGA | -0.182
AAGCTAAC | -0.118
ATATTGAG | -0.114
AATTGCCT | -0.11
CCGTCTTC | 0.208
ACGGAGAA | 0.188
AGACCCAT | -0.217
CTACCTGA | -0.162
CACCAAAG | -0.0465
ATGAACCC | 0.133
CACTTTGC | -0.0943
CGGGAGCA | 0.141
GGTGCAGA | 0.0449
GCAGCAAC | -0.0309
TATGTCCA | 0.133
CACTCTGG | -0.197
AGCCAATA | -0.115
GAGAAGGC | -0.197
AAATAGTC | 0.23
GGAATCTA | -0.12
CCATGGGG | -0.192
CACTCCCC | 0.0717
CGAGGTGA | -0.00576

Sequence | PBM E-score
GACCGCCA | 0.317
AACTTGGG | 0.00547
CGTGAGTA | -0.0904
AAGCTCGC | -0.205
CACCACCC | -0.0691
CAACCGCA | -0.0614
ATGATCTC | -0.295
CGTACTTA | 0.199
AGATAGCG | -0.171
AACGACCG | 0.173
AGTAAATA | 0.0513
ATCTCTGC | -0.21
CGACGCTC | 0.122
GTTTGCAA | -0.0728
AGGTTGTC | -0.204
CTGGGCCC | 0.0619
CCTAGTCG | -0.0474
CTACGAGC | -0.152
ACGCTGTC | 0.0255
AAGGCCTC | -0.17
ATATTTTC | 0.0999
ACTCAAGA | -0.163
CTGCACAC | -0.175
CCGCGCAA | 0.204
CGATTCGA | -0.0986

Sequence | PBM E-score
ACACTAGT | -0.221
AATGCCCC | 0.128
AATTGGGA | -0.0477
AACCTGTG | -0.218
TAACGCTA | 0.102
ATTTACTG | -0.0363
ATGGCTTG | -0.134
AACAATGT | -0.0728
ACGCTTCT | -0.237
CCCGTACA | 0.0487
GATAGCTA | -0.159
CGACTGAC | -0.021
CAAATATC | 0.11
GTACCAGA | -0.2
TGGTTTAA | -0.231
ATCTCGTG | -0.136
ATTCCCCC | 0.116
ATCACTCC | 0.255
CACGCCCC | -0.13
ATACGCAG | -0.28
GTGCAGTA | -0.0157
GCCAACAC | -0.134
GAGCTGGA | -0.107
CAATCTTC | -0.167
AAAAGCGC | 0.121

Sequence | PBM E-score
GAAATGGC | 0.0144
ACCTAAGT | 0.0418
ATTGTCAA | -0.18
AACTAACC | 0.0977
CGAGAGCC | -0.13
CAGTTACC | -0.115
ACGGGACT | 0.343
GATAAATC | 0.249
TCCCTCCA | -0.146
ACGCCGCA | 0.354
CAGCGGTA | 0.294
CATAGAAG | -0.126
AGCCTAGA | -0.206
AATTGACA | -0.0344
CGTAGGGC | -0.0383
CAGCCGGA | 0.14
AATACTGC | -0.0596
ACGGCACC | 0.175
GCCCACAA | -0.138
CATTCCTA | -0.217
ACTCCTTA | -0.048
TCGAATCA | -0.163
AAGTATAA | -0.144
TCATTCCA | -0.171
GTGCCGCA | 0.202

Sequence | PBM E-score
TCGAGGCA | -0.122
CAATGGCG | 0.0853
AGCTCGAA | -0.0836
CAAGCCAC | -0.275
AGACCCTA | -0.132
AAATACGC | 0.108
AAGTCTTC | -0.346
ATTCAGCG | 0.0232
GACCCACA | 0.0704
AGATGTTC | -0.0574
ACAATTCG | -0.00889
CGGCACAA | 0.256
AAATCCGC | 0.354
ATACGAAA | -0.0473
CCGCCCGA | 0.307
AAATCGAG | -0.148
ACCAGGGG | -0.13
GGTTTGTA | -0.0172
ACTAATAC | 0.0638
CCATGTAC | -0.197
CGGCCTTC | 0.316
CGCTGCAC | -0.0234
GCCGTAAC | 0.282
CTGTTAAA | 0.00799
TGGAACAA | -0.3

Sequence | PBM E-score
CTTCGCAC | 0.0158
AGTTACGG | 0.187
AATGCGCA | -0.122
GTCTCATA | 0.051
CAGACAGC | -0.156
GTGCGTAA | -0.0375
ACAAGAGC | -0.113
ATGTATTG | 0.0133
AATTCCTG | -0.0811
AACAATAC | -0.148
ATTACAAA | -0.0401
TCACCACA | 0.00819
CAGGTATC | -0.102
CATTTTTC | 0.0263
AACCCAGC | -0.169
GCGGACAC | 0.333
GCCTATAA | 0.0249
GCCTCAGA | -0.0989
CGAACTCC | 0.209
CAACCCCG | 0.371
AATTGTCT | -0.238
AGGGTTGG | -0.225
CAATTTTA | -0.00732
TACCGATA | 0.28
GTAGGAAA | -0.184

Sequence | PBM E-score
AGCTCCCG | -0.0713
CATTCAAA | -0.0863
ATATATAC | 0.173
GCTCCGTA | 0.297
ATGCAACA | -0.18
CACAGTCG | -0.0701
TATATCCA | 0.0192
AACCAGGG | 0.00544
AGAATTTG | -0.092
GTGTCAAC | -0.0914
AAAGCTGG | -0.215
ACATGGCA | -0.179
ACATTGTG | -0.145
AAACACGG | -0.0253
ACGCGAAG | -0.0662
AGAGGGGG | -0.303
ATTAATTA | -0.0684
AGGAGTGA | -0.206
AAACTACC | 0.0696
